Measured values reported in the antibiotic and cytotoxicity screens of Wong et al. (2023).
Some of the results follow.

How the values were obtained:
[1] = tested on: HSkMC (human skeletal muscle cells); experiment: cytotoxicity call (relative viability < 0.9); settings: 10 µM
[2] = tested on: HepG2; experiment: cytotoxicity call (relative viability < 0.9); settings: 10 µM
[3] = tested on: S. aureus RN4220; experiment: growth inhibition call (relative growth <= 0.2); settings: 50 µM

SMILES | cytotoxicity call [1] | cytotoxicity call [2] | growth inhibition call [3]
C[C@@H]1CN([C@H](C)CO)C(=O)c2c(c3ccccc3n2C)-c2ccccc2CO[C@H]1CN(C)Cc1ccc2c(c1)OCCN2C | inactive | inactive | inactive
COc1cc(O)c(C(C)=O)c(OC)c1 | inactive | inactive | inactive
Cc1ccoc1C(=O)NCCN | inactive | inactive | inactive
C[C@@H]1CN([C@H](C)CO)C(=O)c2cc(NS(=O)(=O)c3ccccc3)ccc2O[C@@H](C)CCCCO[C@@H]1CN(C)CC1CCCCC1 | inactive | inactive | inactive
COc1cccc(NC(=O)N2C[C@H](O)COC[C@@H]3O[C@@H](CC(=O)NCc4ccccc4F)CC[C@H]32)c1 | inactive | inactive | inactive
C[C@@H]1CCCCO[C@H](CN(C)CC2CC2)[C@H](C)CN([C@@H](C)CO)C(=O)c2cc(NC(=O)Nc3ccc4c(c3)OCO4)ccc2O1 | inactive | inactive | inactive
C[C@@H]1CN([C@@H](C)CO)C(=O)CCCn2cc(nn2)CO[C@H]1CN(C)C(=O)Nc1ccc2c(c1)OCO2 | inactive | inactive | inactive
COC(=O)CCc1ccc(OC)cc1O | inactive | inactive | inactive
C[C@@H]1CN([C@H](C)CO)S(=O)(=O)c2ccc(C#Cc3ccncc3)cc2O[C@H]1CN(C)C(=O)C1CCOCC1 | inactive | active | inactive
CC(C)NC(=O)N(C)C[C@@H]1Oc2ccc(NS(=O)(=O)c3cccs3)cc2CC(=O)N([C@H](C)CO)C[C@H]1C | inactive | inactive | inactive
N=C(N)NCCC[C@@H]1NC(=O)[C@@H](N)CSSC[C@@H](C(=O)O)NC(=O)[C@H](CC(=O)O)NC(=O)[C@@H]2CCCN2C(=O)CNC(=O)[C@H](CCCCN)NC(=O)[C@H](CC(=O)O)NC(=O)CNC1=O | inactive | inactive | inactive
COc1ccc(S(=O)(=O)Nc2cccc3c2O[C@H](CN(C)CC2CC2)[C@@H](C)CN([C@@H](C)CO)C3=O)cc1 | inactive | inactive | inactive
C[C@H](CO)N1C[C@H](C)[C@H](CN(C)CC2CC2)Oc2ccc(NS(=O)(=O)c3ccccc3)cc2C1=O | inactive | inactive | inactive
C[C@@H]1CCCCO[C@H](CN(C)C(=O)c2ccccc2)[C@H](C)CN([C@@H](C)CO)C(=O)c2cc(NC(=O)Cc3ccccc3)ccc2O1 | inactive | inactive | inactive
C[C@H]1CN([C@@H](C)CO)S(=O)(=O)c2ccc(C#Cc3ccncc3)cc2O[C@@H]1CN(C)C(=O)C1CCCCC1 | inactive | active | inactive
CC(C)C(=O)O | inactive | inactive | inactive
C[C@@H]1CN([C@@H](C)CO)C(=O)c2cccc(NC(=O)Nc3ccc(F)cc3)c2O[C@@H]1CN(C)C(=O)Nc1ccc(C(F)(F)F)cc1 | inactive | inactive | inactive
C[C@@H]1CN([C@H](C)CO)C(=O)Cc2cc(NS(=O)(=O)c3ccccc3)ccc2O[C@@H]1CN(C)S(=O)(=O)c1ccccc1 | inactive | inactive | inactive
Cc1noc(C)c1NC(=O)N(C)C[C@@H]1Oc2ccc(NS(C)(=O)=O)cc2CC(=O)N([C@H](C)CO)C[C@H]1C | inactive | inactive | inactive
CCOC(=O)c1ccc(N)cc1 | inactive | inactive | inactive
C[C@@H]1CCCCO[C@H](CN(C)C(=O)C2CCCCC2)[C@@H](C)CN([C@@H](C)CO)C(=O)c2cc(NC(=O)Nc3ccc(F)cc3)ccc2O1 | inactive | active | inactive
C[C@@H]1CCCCO[C@@H](CN(C)C(=O)Nc2cccc3ccccc23)[C@@H](C)CN([C@H](C)CO)C(=O)c2cc(NS(C)(=O)=O)ccc2O1 | inactive | inactive | inactive
C[C@@H]1CN([C@@H](C)CO)C(=O)c2cc(NC(=O)c3ccccc3)ccc2O[C@@H](C)CCCCO[C@H]1CN(C)S(=O)(=O)c1cccs1 | inactive | inactive | inactive
